The whole screen tested about 340,000 compounds, of which about 12,000 (3.5%) were called active. Inconclusive results, whose numbers are uncertain, are shown with a selection of clear calls. The call rests on the fitted dose curve; in most records, active means well fitted inhibition curve with a large enough effect; inconclusive means small, poorly fitted or top-dose-only effect, or another doubt; inactive means no such curve, though single readings can be large or run the other way. Potencies of inconclusive entries are left out as doubtful fits.
Experiment: qHTS Assay for Inhibitors of Hepatitis C Virus (HCV)
Settings: Huh7.5.1 HCVcc-Cre (HCVcc is cell-culture hepatitis C virus) infection, luciferase reporter, 44 h; activity change, negative = inhibition: at 41.8 µM (top of the series) unless noted
Method in brief: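 A cell-based infection assay in which seeded cells (1,000 per well) receive test compound after 4 h, are inoculated with HCVcc-Cre at approximately 0.5 moi, and are incubated 44 h before luminescence detection.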
With `COc1ccc(NC(=O)Nc2ccc(N3CCOCC3)c3nonc23)c(OC)c1` the “activity change, negative = inhibition” value was inactive: -29.7%.
For `COc1cc(C(=O)NCCSc2ccc(Br)cc2)cc(OC)c1OC`, the Potency was inconclusive [inhibitor, single point].
For `COc1cccc(/C=C/C(=O)Nc2ccc3c(c2)OCCO3)c1OC`, the Potency was inconclusive [inhibitor, single point].
With `Cc1ccc(C(=O)N2CCN(c3ccc(C(F)(F)F)cn3)CC2)c(C)c1` the Potency was inconclusive [inhibitor, single point].
In the case of `Cc1nc2nc(N)nn2c(C)c1C/C=C/c1ccccc1`, the “activity change, negative = inhibition” value is reported as inactive: 3.69%.
With `C/C(=N/NC(=O)c1ccc(-c2ccccc2)cc1)c1cc(O)cc(O)c1` the “activity change, negative = inhibition” value was inactive: -13.6%.
With `Cc1ccc(C(=O)Nc2ccc3c(c2)C(=O)NC3=O)cc1` the “activity change, negative = inhibition” value was inactive: 11.9%.
With `COc1cc(OC)cc(C(=O)NCCN2C(=O)S/C(=C\c3cccs3)C2=O)c1` the Potency was active: 8.91 µM.
With `Cc1ccc(C(=O)Nc2nc(C)c(C(=O)Nc3ccc4c(c3)CCC4)s2)cc1` the Potency was inconclusive [inhibitor, full curve].
For `Nc1c2c(nc3sc4c(c13)CCCC4)-c1ccccc1CC2`, the Potency was inconclusive [inhibitor, partial curve].
For `COc1ccc(C(=O)NC(=S)N2CCN(c3ccc([N+](=O)[O-])cc3)CC2)cc1`, the “activity change, negative = inhibition” value was inactive: -1.18%.
With `COc1ccc(Br)cc1CN(C)C(=O)Cc1ccc(OC)c(S(=O)(=O)N2CCOCC2)c1` the Potency was inconclusive [inhibitor, single point].
In the case of `CCCCn1c(NC(=S)Nc2ccccc2)nc2ccccc21`, the Potency is reported as inconclusive [inhibitor, single point].
With `CCc1ccc(NC(=O)c2ccc(-n3cncn3)c([N+](=O)[O-])c2)cc1` the Potency was inconclusive [inhibitor, partial curve].
With `C/C(=N\NC(=O)NC1CCCCC1)c1ccc(Cl)s1` the Potency was active: 3.16 µM.
With `C=CCn1c(O)c(C=NCCCOc2ccc(CC)cc2)c(=O)[nH]c1=S` the Potency was inconclusive [inhibitor, single point].
For `COc1ccccc1/C=C/C(=O)c1ccc(Cl)cc1`, the Potency was inconclusive [inhibitor, single point].
For `CCc1ccc(-c2cc(C(=O)Nc3c(C)n(C)n(-c4ccccc4)c3=O)c3ccccc3n2)s1`, the Potency was inconclusive [inhibitor, partial curve].
For `O=C(CSc1nc(-c2ccccc2)cs1)Nc1nccs1`, the Potency was inconclusive [inhibitor, single point].
With `CCC1CCCCN1S(=O)(=O)c1ccc2c(c1)CCN2C(C)=O` (stereo not given) the “activity change, negative = inhibition” value was inactive: 5.56%.
For `O=C(N/N=C/c1ccccn1)c1ccc2nc[nH]c2c1`, the “activity change, negative = inhibition” value was inactive: 6.44%.
For `CCc1ccc(NC(=O)c2cnn(-c3ccccc3)c2C2CCNCC2)cc1`, the “activity change, negative = inhibition” value was inactive: 27.7%.
With `CCC1=Nc2cc(C(=O)NCCCN3CCOCC3)ccc2Sc2ccccc21` the Potency was inconclusive [inhibitor, single point].
For `CCOC(=O)c1ccc(NC(=O)COc2ccc(CNC3CCCCC3)cc2OC)cc1`, the Potency was inconclusive [inhibitor, full curve].
In the case of `O=C(CSc1nnc(-c2cccnc2)s1)Nc1ccnc2ccccc12`, the Potency is reported as inconclusive [inhibitor, full curve].
For `COc1cc(NC(=O)c2ccccc2OCc2ccccc2)cc(OC)c1OC`, the Potency was inconclusive [inhibitor, partial curve].
In the case of `Cc1cccc(C(=O)N[C@H](C(=O)Nc2nnc(C3CC3)s2)C(C)C)c1`, the “activity change, negative = inhibition” value is reported as inactive: 2.31%.
With `Cc1ccc(C(=O)N2C(CC(=O)Nc3ccc(Cl)cc3)C(=O)NC3CCCCC32)cc1` (stereo not given) the Potency was inconclusive [inhibitor, single point].
In the case of `Cc1oc(-c2ccc(Cl)cc2)nc1CS(=O)CC(=O)NCCN1CCCCCC1` (stereo not given), the Potency is reported as inconclusive [inhibitor, partial curve].
With `COc1cccc(/C=N/NC(=O)c2cc3c(OC)cccc3[nH]2)c1O` the Potency was inconclusive [inhibitor, single point].
In the case of `O=C(c1ccc(F)cc1)N1CCC(C(=O)N2CCN(S(=O)(=O)c3cccc(Cl)c3)CC2)CC1`, the Potency is reported as inconclusive [inhibitor, partial curve].
For `CCOC(=O)c1c(C)n(Cc2ccccc2)c2ccc(O)cc12`, the “activity change, negative = inhibition” value was inactive: -11.5%.
For `COc1ccc(NC(C)C(=O)N/N=C/c2ccccc2OCc2cccc(Br)c2)cc1` (stereo not given), the Potency was active: 11.2 µM.
In the case of `Cc1noc(/C=C/N(C)C)c1S(=O)(=O)N1CCCC(C(=O)Nc2ccc(F)cc2F)C1` (stereo not given), the “activity change, negative = inhibition” value is reported as inactive: -8.46%.
For `S=C(NCc1ccccn1)Nc1cccc(Cl)c1`, the “activity change, negative = inhibition” value was inactive: -5.67%.
In the case of `COC(=O)c1cc(C(=O)NCC2CCCCC2)cc([N+](=O)[O-])c1`, the Potency is reported as inconclusive [inhibitor, single point].
For `CC(=O)Nc1ccccc1C(=O)OCc1ccc(C(=O)c2ccccc2)cc1`, the Potency was inconclusive [inhibitor, full curve, poor fit].
In the case of `CCN1CCN(c2ccc(S(=O)(=O)N3CCCCC3)cc2NC(=O)c2cccc(OC(F)F)c2)CC1`, the Potency is reported as inconclusive [inhibitor, single point].
In the case of `O=C(CCCN1CCC(n2c(=O)[nH]c3ccccc32)CC1)c1ccc(F)cc1`, the Potency is reported as inconclusive [inhibitor, partial curve].
In the case of `S=C(NCc1cccnc1)NCc1cccnc1`, the “activity change, negative = inhibition” value is reported as inactive: 20%.
With `COc1ccc(/C=C2\Sc3ccc(C(=O)NC4CC4)cc3N(C)C2=O)cc1OC` the Potency was inconclusive [inhibitor, single point].
In the case of `Clc1ccc(CN=C(Nc2ccccc2)NC2CCCCC2)cc1`, the Potency is reported as inconclusive [inhibitor, single point].
For `CCOc1ccc(CCNC(=O)c2cccc(S(=O)(=O)N3CCOCC3)c2)cc1OCC`, the Potency was inconclusive [inhibitor, full curve].
For `O=C(NCCCNCc1ccccc1)/C(=N\O)c1ccccc1`, the “activity change, negative = inhibition” value was inactive: 8.27%.
For `CC(C)C(=O)O/N=C(\N)c1ccc(Oc2ccc(Cl)cc2)c([N+](=O)[O-])c1`, the activity change, negative = inhibition was inconclusive: -39.4% [inhibitor].
For `Oc1cccc2ccc(/C=C/c3ccccc3Cl)nc12`, the Potency was active: 7.94 µM.
In the case of `O=C(Nc1cc(C(F)(F)F)ccc1-n1cncn1)C1CC1`, the Potency is reported as inconclusive [inhibitor, partial curve, poor fit].
For `CCC(=O)Nc1cccc(-c2nnc(-c3cccc(NC(=O)CC)c3)o2)c1`, the Potency was inconclusive [inhibitor, partial curve].
In the case of `COc1ccc(CNc2cc([N+](=O)[O-])ccc2OC)cc1`, the Potency is reported as inconclusive [inhibitor, partial curve].
For `COC(=O)C1=C(c2ccc(OC(F)(F)F)cc2)C[C@@H]2CC[C@H]1N2C(=O)NC1CC1`, the Potency was inconclusive [inhibitor, single point].
In the case of `CCOC(=O)CN1C(=O)N[C@@H](c2ccc(Br)cc2)C(C(=O)OC)=C1C`, the Potency is reported as inconclusive [inhibitor, single point].
With `O=C(NCCN1CCOCC1)c1ccc(Cl)c(S(=O)(=O)NCc2ccccc2)c1` the Potency was inconclusive [inhibitor, single point].
With `O=C(NCCc1ccccc1)c1ccc2c(c1)S(=O)(=O)c1cc(Cl)ccc1C2=O` the Potency was inconclusive [inhibitor, partial curve].
In the case of `COc1ccc(CNCCC(c2ccccc2)c2ccc(OC(C)C)cc2)cc1OC` (stereo not given), the Potency is reported as active: 11.2 µM.
With `C/C(N)=C(/C#N)C(=O)CSc1nnnn1-c1ccc(C)cc1` the “activity change, negative = inhibition” value was inactive: -0.98%.
For `COc1ccc(-c2nnc3c4ccccc4c(C)nn23)cc1S(=O)(=O)N1CCN(CCO)CC1`, the Potency was inconclusive [inhibitor, single point].
In the case of `CN(C)S(=O)(=O)c1cccc(NC(=O)c2cccc(NS(=O)(=O)c3ccccc3)c2)c1`, the Potency is reported as active: 12.6 µM.
For `CCN(CC)c1nc(-c2ccccc2)nc2ccccc12`, the Potency was active: 11.2 µM.
In the case of `Cc1cc(Oc2ccc(C)c(Cl)c2)nc(SCC(=O)c2ccccc2)n1`, the Potency is reported as inconclusive [inhibitor, single point].
With `CC1c2ccccc2SC(CCCN(C)C)c2ccccc21` (stereo not given) the Potency was inconclusive [inhibitor, partial curve].
With `C#CCOCCOCCOCCNc1nc(N2CCOCC2)nc(N2CCN(C(=O)CCCCCCCCCCNC(=O)[C@@H]([C@H](C)O)n3cc(C)nn3)CC2)n1` the “activity change, negative = inhibition” value was inactive: -6.82%.
In the case of `N#CCCN(NC(=O)OCc1ccccc1)C(=O)OCc1ccccc1`, the “activity change, negative = inhibition” value is reported as inactive: 30.6%.
For `COC(=O)[C@H](CC(C)C)NC(=O)Cn1cnc2c(NCc3ccccc3)ncnc21`, the “activity change, negative = inhibition” value was inactive: 1.4%.
With `CCN(CC)S(=O)(=O)c1cc(OC)ccc1N=Nc1ccc(O)c2ncccc12` the Potency was active: 5.01 µM.
In the case of `Cc1cccc(C)c1OCC1CNC(=O)O1` (stereo not given), the “activity change, negative = inhibition” value is reported as inactive: 8.25%.
For `N#Cc1ccccc1S(=O)(=O)N1CCN(C(=O)Cc2coc3cc(O)ccc23)CC1`, the Potency was inconclusive [inhibitor, single point].
For `CC(C)Cc1ccc(CN2CCCC(NC(=O)c3nn(C)c(=O)c4ccccc34)C2)cc1` (stereo not given), the Potency was inconclusive [inhibitor, single point].
With `Cc1oc(-c2ccccc2)nc1Cn1cccc1C1=NC(c2ccccc2)CO1` (stereo not given) the Potency was inconclusive [inhibitor, single point].
With `CC(=O)Nc1ccc(Nc2ncnc(N)c2[N+](=O)[O-])cc1` the Potency was inconclusive [inhibitor, full curve, poor fit].
For `CCOCCc1nnc(NC(=O)c2ccc(OC)c(OC)c2)s1`, the Potency was inconclusive [inhibitor, partial curve, poor fit].

From PubChem BioAssay AID651820 (National Center for Advancing Translational Sciences (NCATS), 2012)
On the % scale 0 is the no-effect control and ±100 the full control effect; potency means the concentration at half of the fitted maximal effect; tags describe the fitted curve by direction and shape.
